# The other results are listed elsewhere or left out. These are noisy estimates, calculated here from bound and input reads.
# Target: T1, Pho4 (S. cerevisiae) (UniProt P07270)
# T1 sequence: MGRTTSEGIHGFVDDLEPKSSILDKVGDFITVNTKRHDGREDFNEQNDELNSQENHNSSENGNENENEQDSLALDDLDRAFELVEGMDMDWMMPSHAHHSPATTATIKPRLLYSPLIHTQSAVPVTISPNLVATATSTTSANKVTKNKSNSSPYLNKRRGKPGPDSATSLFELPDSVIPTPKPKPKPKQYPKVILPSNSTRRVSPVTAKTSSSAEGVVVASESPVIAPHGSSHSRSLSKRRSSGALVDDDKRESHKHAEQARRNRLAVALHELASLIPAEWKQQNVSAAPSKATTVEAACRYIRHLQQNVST
# Experiment: relative binding free energy (BET-seq); higher = weaker binding
# Details: reference: library average
row,Sequence,relative binding free energy [kJ/mol]
1,ATGTACACGTGGACGG,0.544
2,TCTGTCACGTGGTCGG,-0.0418
3,CTGGCCACGTGTTTGG,-0.753
4,TGAGTCACGTGGGACA,0.418
5,TTTGGCACGTGAAGTA,0.251
6,CTTTACACGTGGGTGG,0
7,AAAGGCACGTGGGAGC,-0.586
8,GATTACACGTGTGTCT,0.92
9,TTTGCCACGTGGTTGC,-0.46
10,TATATCACGTGGGTAA,-0.0837
11,TATGGCACGTGTCAGG,-0.251
12,TTCAGCACGTGGGTCG,-0.0837
13,ATCTGCACGTGGTGGG,-0.0837
14,TGCATCACGTGGGGCG,0
15,CAATTCACGTGTAGTG,1.05
16,GGTTGCACGTGTCACG,0.167
17,ACTGTCACGTGGGCTT,-0.0418
18,GTGTTCACGTGGAAGA,0.962
19,AGGTACACGTGATTGT,0.377
20,AATGACACGTGATGTG,0.293
21,GTGTGCACGTGTTGAC,0.669

row,Sequence,relative binding free energy [kJ/mol]
1,CTTATCACGTGGAGTT,1
2,AATAGCACGTGTAAGG,-0.0418
3,AGGTCCACGTGAGGTG,0.795
4,AAGGTCACGTGGGGTT,-0.628
5,TCCGGCACGTGGGGTA,-0.502
6,ATTAGCACGTGGATAG,-0.0837
7,TGTGACACGTGTAGTG,0.209
8,ATGATCACGTGATGGT,0.92
9,GAGACCACGTGGGTTG,-0.209
10,TCTTGCACGTGGAGAG,0.126
11,TAATGCACGTGATTCG,0.377
12,AGTCGCACGTGTGATG,0.209
13,TGGGGCACGTGAAATT,1.17
14,GTGATCACGTGGTGTG,0.377
15,TGGTTCACGTGGATGA,0.418
16,GATTGCACGTGTGGGC,0.544
17,GGCTTCACGTGCGTTT,1.42
18,AGAATCACGTGCATGG,0.753
19,GCGGGCACGTGTGATT,0.544
20,AATGGCACGTGGTATG,-0.586
21,TATTGCACGTGGCCGG,-0.962

row,Sequence,relative binding free energy [kJ/mol]
1,GTTGTCACGTGAAAAT,1.38
2,GTTGACACGTGGGTTA,-0.628
3,GTCTTCACGTGATGTT,1.26
4,GGGTACACGTGTCGGA,0.837
5,AGGTACACGTGGATAG,0.293
6,TTAGACACGTGTACTG,0.335
7,GTGGACACGTGAATTT,1.3
8,CGAAGCACGTGTTTGG,-0.795
9,TCGGGCACGTGTGGCC,0.669
10,GTTTGCACGTGACCGG,0.46
11,TTGAACACGTGGGCAT,-0.502
12,CTTAGCACGTGTTATG,-0.669
13,AATAGCACGTGTTGCT,-0.502
14,CGGGACACGTGTATAG,0.209
15,ACGGCCACGTGGTAGG,-0.335
16,AAGTTCACGTGCACGG,1.63
17,TGGTGCACGTGAGTAA,0.167
18,AATGGCACGTGTGCGT,-0.92
19,CTGAGCACGTGAGGGA,0.837
20,AGTGGCACGTGGGATC,-0.669
21,GCGTACACGTGGGGTC,-0.126

# — the BET-seq Pho4 binding data (Le et al. 2018)
